Results taken from the supplement of paper PMC11417369.
± gives the standard deviation of the averaged measurements. This is one part of the list.

What follows are sequences tested on PfAP2-EXP AP2 domain (GST-tagged) (assay: gcPBM binding intensity (ln(normalized median fluorescence intensity)); higher = stronger DNA binding).
In short: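 Probes on an Agilent 4 × 180k array were primer-extended, double-stranded and 36 bp long, taken from intergenic genomic regions, with negative controls added. GST-tagged P. falciparum DNA-binding domains from E. coli, about 25 μg on average, were applied to the array for 1 h in 1× PBS containing 1% milk, 0.2 mg/ml BSA, 0.5% salmon testes DNA and 0.03% Triton X-100. Binding intensity, obtained after Alexa488 anti-GST antibody detection and a 488 nm scan, is the highest Masliner-normalised natural-log median intensity across replicate spots of either probe orientation.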

Row | Sequence | gcPBM binding intensity (ln)
1 | TGACTTTTTTTTTTTTTTTTTTTTTTTTATCTTTTT [CACACA_negctrl_site481] | 8 ± 0.49
2 | TTATGATTATAACGTTTTGACATTAGGCATATATAT [CACACA_negctrl_site1396] | 8.45 ± 0.51
3 | TACCCAAAGTTACATACACACTAATATTTACACCAT [CACACA_site4709] | 8.64 ± 0.47
4 | GATGTTCATCACTACACACACAAAGAAATATAAATA [CACACA_site7294] | 8.65 ± 0.69
5 | ATATGAAGTTATATAGTGCACATGTACAACCAAATC [GTGCAC_site9974] | 9.12 ± 0.24
6 | TAATAATAGTGAGAGTGTACTTTAAATAAAATATAT [XGTACX_site2850] | 8.28 ± 0.23
7 | TTCTATATATATATAGACAAACGATAAAATAAAAAA [GTGCAC_negctrl_site142] | 8.8 ± 0.4
8 | AGAAAAGAAATTAGTTGTACTCTGATGAATTATCCT [XGTACX_site6284] | 8.31 ± 0.33
9 | ATAATATTATACTTTGCACACATCTGAAATGACATA [CACACA_site3952] | 8.94 ± 0.23
10 | TACAATTTGATATATACACACAAATAAATTATGCTT [CACACA_site6534] | 8.13 ± 0.31
11 | AAAAGTACAATATATATGTATGTGTATAGAATGGTT [TGCATGCA_negctrl_site76] | 8.94 ± 0.43
12 | AAAAAACAGACATACACACACACACCCATATATATA [CACACA_site3392] | 8.79 ± 0.38
13 | TTTGATAAAATTGATATCCTATAATTATATAAATAA [GTGCAC_negctrl_site317] | 8.04 ± 0.46
14 | GATAAAATAAAAGTGGGTACTTAAATATATATATAA [XGTACX_site8457] | 8.48 ± 0.42
15 | TAATATTATTATTTTACACACTTTTTTCCTTTTATC [CACACA_site2457] | 8.66 ± 0.41
16 | AAAGAATTTAAATATTGTACGCAATATATAAAAAAA [XGTACX_site7616] | 8.68 ± 0.24
17 | TGTATGTATAAAAACGCATGTATGTATTTTACAATA [TGCATGCA_site767] | 8.42 ± 0.41
18 | ATGTATATATATATATGTACTAATTAGTAGTTTACG [XGTACX_site6272] | 8.91 ± 0.4
19 | AAAATTAAAAATAACACACACATATATATATTTATA [CACACA_site2776] | 8.43 ± 0.39

Row | Sequence | gcPBM binding intensity (ln)
20 | GATATTTTTTTCGAAAGTACAAAAAAAAATATTTCC [XGTACX_site4389] | 8.34 ± 0.23
21 | ATATATATACCAAGTAGTACATTCTACAACTAATGT [XGTACX_site8653] | 8.53 ± 0.2
22 | TACTAAGAATTAATATAACAAAATAAAAAAAAAAAA [XGTACX_negctrl_site346] | 8.31 ± 0.42
23 | ATACAGATATATAATACACACATAAATGTAACATTT [CACACA_site5864] | 8.66 ± 0.45
24 | TAGATACATACACGCACACACATATATATATATATA [CACACA_site12] | 10.2 ± 0.29
25 | AATGTACGTTTTATAACACACACACTAATAAAAAAA [CACACA_site9286] | 8.63 ± 0.39
26 | CCACATTAAAAAAAAACACACATATATTATAGATAT [CACACA_site6662] | 8.55 ± 0.49
27 | ATCTTCAAAAATATTAGTACACATGTATCATGAATT [XGTACX_site3872] | 8.62 ± 0.24
28 | TTTATTTGTAACGGTTGTACTTGTATATCATTATGA [XGTACX_site4281] | 8.67 ± 0.3
29 | TAGTGATATAATTATGTGCACTTAATACAGGTCGAT | 9.09 ± 0.12
30 | CTTAAATTTAAGTTCACACATATTGGTCATTTATAT [CACACA_site5006] | 8.6 ± 0.5
31 | CACTAAAATAGACACACACACACACGGATATAAATA [CACACA_site7873] | 8.78 ± 0.58
32 | AATTATATGCTTAATACGCACACGGGAAAAAAAAAA [CACACA_site1376] | 8.65 ± 0.39
33 | TTTTCAAAAATATACACACACATAAATATCTGTATA [CACACA_site4586] | 8.22 ± 0.39
34 | TAAATAAAAAAAAATCGTACATATATTTTATATATG [XGTACX_site3293] | 8.12 ± 0.4
35 | TATTTACATTTTAGTAGTACATATATGTATATATAT [XGTACX_site6839] | 8.57 ± 0.24
36 | TCGTAATAATAGTTGAGTACGCACTAATATGTCAAT [XGTACX_site643] | 8.87 ± 0.38
37 | AGATAAAATATATATGCACACACATATATATTTCAT [CACACA_site9183] | 8.43 ± 0.19
38 | TTAATAATTAATATATGTACTGATAAATAACATATA [XGTACX_site3966] | 8.29 ± 0.3

Row | Sequence | gcPBM binding intensity (ln)
39 | ATTCTATATAAATATACACACATATATAAAATACAT [CACACA_site2293] | 8.45 ± 0.39
40 | TAATTATTTAAAAAGAGTACATTTTTTTTTTTTTTT [XGTACX_site1060] | 8.25 ± 0.2
41 | ATAATTATTTAATATATATATATTATTTCGAATGTT [GTGCAC_negctrl_site688] | 8.59 ± 0.58
42 | ACATATCTATCGTTTTTAATTGTATATTATTATAAC [TGCATGCA_negctrl_site144] | 8.46 ± 0.5
43 | TGTTTGTAATTATGTATGCACTTTTTTGTATGTGTG [GTGCAC_site9668] | 8.85 ± 0.38
44 | TCCCACTGTTATATTGAAAAAAAAAAAAAAAAAAAA [TGCATGCA_negctrl_site288] | 7.96 ± 0.5
45 | AGAAAAAAACAACATGCACACGCACCCACAAAAAAA [CACACA_site7908] | 8.88 ± 0.3
46 | ATATTCTTGTTTAATACACACTGTAGTATTATATAT [CACACA_site4400] | 8.84 ± 0.58
47 | TAATGAGCGCTTGTAGTGCATTATATTCAAAAATAT | 8.54 ± 0.2
48 | TCTTGTATATGTTAAAGTACACAACAATATATATAT [XGTACX_site6814] | 9.55 ± 0.16
49 | ATACCTTCTTTTATGTTTAATTAATATACTTTTTAT [CACACA_negctrl_site1557] | 9.03 ± 0.54
50 | TTTGAAAAAAATTAATGTACATTTGAAATGACATAT [XGTACX_site3902] | 8.21 ± 0.3
51 | GTATAAAAGTTATATACACACAACAGAATTACATAT [CACACA_site6212] | 8.68 ± 0.49
52 | AAAAAAAAAAAACACACACACACAAATATATAAAAA [CACACA_site1171] | 8.53 ± 0.59
53 | AATACATACATACATACACACATATAAATATATTAT [CACACA_site7650] | 8.59 ± 0.48
54 | TCATATATGGGTAGTATACACACTGTATATTTAGGA [CACACA_site2844] | 8.59 ± 0.46
55 | TTTGCCCAAAAAGGTACACACCACAATGTACATAAA [CACACA_site4599] | 8.78 ± 0.42
56 | TTTTATTTAAATACACGTACATAATGTATATATATA [XGTACX_site7160] | 9.095 ± 0.035
